Assay [1] addresses T1, GFP-4E-T Y30A LL35/36AA (human) (UniProt Q9NRA8).
T1 sequence: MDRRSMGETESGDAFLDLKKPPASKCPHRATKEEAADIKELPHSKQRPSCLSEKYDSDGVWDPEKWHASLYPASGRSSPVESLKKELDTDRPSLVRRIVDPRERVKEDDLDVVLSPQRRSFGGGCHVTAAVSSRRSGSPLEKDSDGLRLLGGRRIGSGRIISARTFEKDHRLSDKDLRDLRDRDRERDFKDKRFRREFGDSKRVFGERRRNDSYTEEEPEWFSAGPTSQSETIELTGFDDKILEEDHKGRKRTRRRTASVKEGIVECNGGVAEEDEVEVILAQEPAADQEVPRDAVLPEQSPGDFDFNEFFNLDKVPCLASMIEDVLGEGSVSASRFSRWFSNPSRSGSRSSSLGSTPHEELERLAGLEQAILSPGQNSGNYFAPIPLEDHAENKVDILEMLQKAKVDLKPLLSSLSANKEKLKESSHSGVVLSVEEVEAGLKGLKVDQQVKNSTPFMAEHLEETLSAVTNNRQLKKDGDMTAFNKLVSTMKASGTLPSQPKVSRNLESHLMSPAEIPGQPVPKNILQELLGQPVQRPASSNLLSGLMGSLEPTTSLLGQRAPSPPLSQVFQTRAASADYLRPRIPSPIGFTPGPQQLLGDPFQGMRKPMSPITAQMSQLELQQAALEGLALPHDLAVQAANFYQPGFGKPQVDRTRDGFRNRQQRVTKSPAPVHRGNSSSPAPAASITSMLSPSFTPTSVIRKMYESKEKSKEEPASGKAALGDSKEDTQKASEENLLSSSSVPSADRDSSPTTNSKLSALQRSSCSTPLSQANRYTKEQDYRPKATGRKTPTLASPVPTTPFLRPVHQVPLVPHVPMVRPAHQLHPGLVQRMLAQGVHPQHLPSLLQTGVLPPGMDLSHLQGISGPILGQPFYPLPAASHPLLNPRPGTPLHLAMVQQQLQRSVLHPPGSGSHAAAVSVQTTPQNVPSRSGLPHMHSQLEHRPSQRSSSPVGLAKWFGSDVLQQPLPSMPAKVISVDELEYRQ
In words: pull-down; GFP-Trap magnetic beads with 1 mg lysate of cells transfected with GFP-4E-T, NET buffer (50 mM Tris-HCl pH 7.5, 150 mM NaCl, 1 mM EDTA, 0.5% Nonidet P-40, 0.25% gelatin), 1.25 h at 4°C; western blotting with eIF4E1, eIF4E2 and 4E-T antibodies.

The chains behind the UniProt entries cited, without tags or fusion partners.
UniProt P06730: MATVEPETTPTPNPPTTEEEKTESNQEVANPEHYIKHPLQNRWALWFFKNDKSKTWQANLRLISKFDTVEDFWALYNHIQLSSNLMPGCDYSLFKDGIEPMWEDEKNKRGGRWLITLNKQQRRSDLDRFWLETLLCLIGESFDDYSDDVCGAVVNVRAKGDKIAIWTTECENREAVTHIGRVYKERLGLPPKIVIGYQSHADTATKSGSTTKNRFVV
UniProt O60573: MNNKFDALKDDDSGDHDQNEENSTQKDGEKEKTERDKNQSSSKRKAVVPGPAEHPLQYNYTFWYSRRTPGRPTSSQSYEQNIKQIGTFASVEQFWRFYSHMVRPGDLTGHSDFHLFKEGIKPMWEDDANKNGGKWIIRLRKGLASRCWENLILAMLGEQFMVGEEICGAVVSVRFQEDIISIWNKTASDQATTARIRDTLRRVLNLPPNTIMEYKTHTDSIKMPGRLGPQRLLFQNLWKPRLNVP

Another assay deals with T2, GFP-4E-T Y55A (human) (UniProt Q9NRA8).
T2 sequence: T1 sequence with A30Y, A35L, A36L, Y55A
Described as above.

Substitutions are numbered along the chain they refer to. Results are given in words; binding and its absence hold for the method and conditions named. In cells and extracts the contact can be indirect. Some binding calls cover weakened binding; strength is not graded here. Tags and fused reporters may be left off the sequences shown.

In the case of “eIF4E1 (endogenous) (from UniProt P06730 1-217)”, the binding result is reported as “no binding” in assay [1] and “binds” in the assay with GFP-4E-T Y55A (human).
Turning to “eIF4E2 (endogenous) (from UniProt O60573 1-245)”, the binding entry (in assay [1]; in the assay with GFP-4E-T Y55A (human)) was “no binding” each time.

Values taken from publication PMC3749138.
